The full ranking holds about 33,000 sequences; the median of “E-score (-0.5 to 0.5)” is about -0.032, and the highest 2% start at about 0.36. The list shows a part of the results.
Molecular target: T1, Sko1 (UniProt Q02100)
T1 sequence: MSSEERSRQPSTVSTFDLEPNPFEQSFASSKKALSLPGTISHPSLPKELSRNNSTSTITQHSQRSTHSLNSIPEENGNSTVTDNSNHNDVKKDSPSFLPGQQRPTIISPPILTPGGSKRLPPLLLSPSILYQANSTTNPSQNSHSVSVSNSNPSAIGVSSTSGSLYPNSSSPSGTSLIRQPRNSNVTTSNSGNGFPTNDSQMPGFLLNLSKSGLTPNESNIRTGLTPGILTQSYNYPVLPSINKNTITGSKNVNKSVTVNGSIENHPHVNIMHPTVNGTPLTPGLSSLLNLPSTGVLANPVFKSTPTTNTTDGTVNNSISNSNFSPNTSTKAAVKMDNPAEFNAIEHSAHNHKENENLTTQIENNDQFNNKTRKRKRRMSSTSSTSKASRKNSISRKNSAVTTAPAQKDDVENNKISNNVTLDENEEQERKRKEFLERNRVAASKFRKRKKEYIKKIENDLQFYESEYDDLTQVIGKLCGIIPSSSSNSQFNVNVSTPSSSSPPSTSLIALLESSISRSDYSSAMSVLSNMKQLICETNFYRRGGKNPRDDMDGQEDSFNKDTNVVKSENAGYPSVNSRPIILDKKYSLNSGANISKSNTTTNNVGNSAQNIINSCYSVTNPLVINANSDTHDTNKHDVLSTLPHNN
Experiment: PBM E-score (8-mer binding enrichment) (E-score (-0.5 to 0.5)); higher = stronger / more preferred TF binding; most listed sequences are background and not binding sites
Conditions: protein concentration: 200 nM; construct: GST-full length
Procedure, shortened: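 GST-tagged yeast TFs (full-length or DNA-binding domain) were made by PURExpress in vitro transcription/translation and applied at about 100-200 nM to universal all-10-mer Agilent arrays. The arrays were made double-stranded by primer extension, on fresh or once-stripped slides. Bound protein was detected with fluorescent anti-GST, and scans were normalised with masliner. Each ungapped eight-base word, pooled with its reverse complement, received an E-score (modified Wilcoxon-Mann-Whitney statistic) from the Universal PBM Analysis Suite.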

Sequence	PBM E-score
CCCGGCTC	-0.337
CCTTCGAA	-0.28
CGAGCGTC	-0.117
AGACTCTA	-0.13
CAATCAAA	0.0195
AACAATCC	0.0558
CCCCTGTA	-0.164
CGGCTGTC	-0.239
ACACTAAT	0.119
CCCAACAC	-0.283
CACTATGA	0.0491
ACTATAAT	0.00975
AGGAAATC	0.038
CCACAAAA	0.132
ACGTTGCG	0.284
CCTGTAAC	-0.0911
GCCATAGC	0.0202
AAATCATC	0.0854
AAAAATGT	0.115
AGACTCTG	-0.227
AAGTAGCT	0.0695
GTTGTATA	0.254
AAGAGGCA	-0.0883
AATGATCC	-0.00177
AGAACAAG	0.13

Sequence	PBM E-score
CCAAGCAA	-0.0553
CACGTGCC	0.278
CTGTTTCC	-0.0778
AGTTAGAG	-0.171
AGAATTGA	-0.0615
GTTAGTGA	0.186
ACGTGTGC	0.388
AAAGTCGG	-0.105
AGCAGTGG	-0.222
AGGTCTGA	0.0487
TTATCCAA	0.2
GACGGAAC	-0.0203
AACGCCGA	0.0746
CTGCGACC	-0.341
AGCGGAAC	-0.265
CTAGCTTA	0.147
ATAGCGGA	-0.0894
GGACAATA	-0.0748
GACAGCGC	-0.179
ACTCGAGG	-0.161
AGAAAAAT	0.152
CCTTGCCG	-0.227
CTTTCATC	-0.165
TCATACGA	0.278
CGCGGCCC	-0.114

Sequence	PBM E-score
GAGCTGAC	0.199
CTTTAGCA	-0.117
CGGAAGAC	-0.0906
ACATGTGG	-0.0358
AAGTTGGA	0.0615
GCCTTAAA	0.127
CATCAGAC	0.0948
CACTATTA	0.0904
ACGCCCAT	0.00824
CGTTAGGA	0.132
CGGTTTAA	0.00485
CCATGAGG	-0.211
GCAGAAAA	0.124
ACCCATGG	-0.16
CGATATTA	0.274
ATTACTGC	0.201
AGCTCCCA	-0.302
GTAGAGAA	-0.0178
AACATCTA	-0.104
AAAAACTC	0.11
CCAGAATA	0.125
CCAACTAA	0.0202
ACCGTGCA	0.123
CACGGTCC	-0.19
CCACTTCA	-0.126

Sequence	PBM E-score
CAGATTCA	-0.111
ACCCTTCC	-0.124
GATTCTGC	-0.0512
GTGGTAAA	0.0542
ACTTCGGC	-0.00736
GCGATCGA	0.127
ATCAAACG	0.128
ATCCCGAT	-0.0671
GCTAATTA	0.192
ATTGAAAA	0.282
GAGTTTGC	-0.149
ATGGTGCG	-0.0974
ACGGCCCT	-0.16
CTAAGCTC	-0.188
CACTTAAG	0.168
GCCCATGA	-0.0412
GCACGCCC	-0.255
AATCATGT	0.132
GGTCCTCA	-0.147
AGGTGACA	0.118
ACATAACA	0.198
AATGGCAG	-0.17
AGTCACCA	-0.269
ATGCCTTA	0.0451
ATATTTGA	0.0539

Sequence	PBM E-score
CCCGTCTA	-0.0364
CGATTAAC	-0.0568
CATTACCG	0.00411
GAGGGGAC	-0.142
ACAGACCG	-0.143
ACACATCA	0.158
ACTGTCTC	-0.164
TCTGGACA	-0.213
ACAGAGCG	-0.0423
ATTGTGCG	0.115
ACTTAAGT	0.211
AGGATTCG	-0.0603
AGCTTCGA	-0.1
CATGAGTA	-0.0243
ATCACAGC	0.162
AATGGGCC	-0.345
CTGTCATA	0.141
ACCGGTCG	-0.217
CGAGAAGC	-0.209
CCCATCAC	-0.048
CCCTGATC	-0.226
ACTCCGCA	-0.0918
ACAGAACA	0.103
CCTGCTAC	-0.00964
TAGGCGCA	-0.13

Sequence	PBM E-score
CCATGGCA	-0.0266
CACAATCG	0.0159
GCGGAGTA	-0.186
ACCCGGGA	-0.204
GAAACAGC	-0.179
CCGCTAAC	-0.144
AGGTTACT	-0.114
GTCAGAAC	0.13
CAATATCA	0.172
CAGCGGAA	-0.153
GGAGTTAC	0.00614
GACGATTA	0.249
CCGACCCG	-0.0145
CACCCCGG	-0.219
GAAGACGC	0.0134
AATCACAC	0.184
GCTAAATA	0.178
CTATCTTA	-0.0753
CAAATGTA	0.244
CCGGGTGC	-0.277
CTCAACAG	-0.122
GAGGACAA	-0.108
CCCCGCGA	-0.307
CCCTGACA	-0.238
ATAGCCCA	0.00831

Sequence	PBM E-score
TACAACGA	0.104
CAATTTGA	0.0958
CGGAGGTC	-0.361
CGAAACCC	-0.164
ACACGCTG	0.0914
ATAAGCTC	0.066
ACTTCGCT	0.0397
CATAGTTA	0.133
CTGTCGGC	-0.148
AGCGTGGC	-0.188
AATCTATG	0.147
CCAGCTGC	-0.294
GATTTGAC	0.224
TATGGTGA	0.0155
CGATCCCG	-0.292
GAGGGGCC	-0.396
CTCCGCCA	-0.245
AATATACT	0.0894
CCTTACAA	-0.223
AGTAGTAG	-0.101
ACTTGCCC	-0.215
GCTCAGCC	-0.117
